The values that follow come from the supplement of paper PMC11880418.

Molecules are shown by their SMILES. Structures can show the parent of a compound that is named as a salt. This is one part of the list. The data scatter; read single values as rough.
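Also: High-content imaging of ALDEFLUOR-stained cells with Hoechst-labelled nuclei in 384-well plates, triplicate wells, scored as Z-score against 0.1% DMSO vehicle, negative meaning fewer ALDHbr cells.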

This experiment has as its system T84. Put plainly: ALDHbr (CSC) cell proportion score relative to DMSO vehicle (ratio to DMSO); breast (SUM159) / gastric (MKN45) / pancreatic (PANC1) / colon cancer lines; ALDHbr cells have high ALDH activity and are rich in cancer stem cells (CSC); higher = more CSC (ALDHbr) cells remaining. The settings on record: 10 µM; 72 h.
As to `CC(=O)Nc1ccc(OCC(O)CNC(C)C)cc1` (configuration not stated) [Practolol], the ALDHbr stood at 0.954.
For the molecule `CSc1ccc2c(c1)N(CCC1CCCCN1C)c1ccccc1S2` (configuration not stated) [Thioridazine hydrochloride], the ALDHbr was determined as 0.141.
Take `Cn1c(=O)c2nc[nH]c2n(C)c1=O` [Theophylline monohydrate]: the ALDHbr turned out to be 0.978.
In the case of `Nc1nc(O)c2ncn(CCC(CO)CO)c2n1` [Penciclovir], the ALDHbr was determined as 1.04.
Turning to `Nc1ccc(O)c(C(=O)O)c1` [Mesalamine], the ALDHbr came to 0.836.
For `Cc1scc2c1N(C(=O)CN1CCN(C)CC1)c1ccccc1NC2=O` [Telenzepine dihydrochloride], the ALDHbr came to 0.949.
The figure for `Clc1ccc(Cn2c(CN3CCCC3)nc3ccccc32)cc1` [Clemizole hydrochloride] is 1.01; for `O=C(O)c1cc(-c2ccc(F)cc2F)ccc1O` [Diflunisal] it is 0.898.
With `COc1c(N2C[C@@H]3CCCN[C@@H]3C2)c(F)cc2c(=O)c(C(=O)O)cn(C3CC3)c12` [Moxifloxacin], the ALDHbr was found to be 1.14.
The figure for `Clc1ccc(COC(Cn2ccnc2)c2ccc(Cl)cc2Cl)cc1` (configuration not stated) [Econazole nitrate] is 0.894; for `c1cnc(N2CCN(Cc3ccc4c(c3)OCO4)CC2)nc1` [Piribedil hydrochloride] it is 0.844; for `CC(=O)O[C@]1(C(C)=O)CC[C@H]2[C@@H]3C=C(Cl)C4=CC(=O)CC[C@]4(C)[C@H]3CC[C@@]21C` [Chlormadinone acetate] it is 0.741.
As for `Cc1cc(C(=O)NNCc2ccccc2)no1` [Isocarboxazid], the ALDHbr turned out to be 1.05.
Regarding `COc1ccc(CC(C)NCC(O)c2ccc(O)c(NC=O)c2)cc1` (configuration not stated) [Formoterol fumarate], the ALDHbr was determined as 1.
The figure for `CN1CCN(CCCN2c3ccccc3Sc3ccc(S(=O)(=O)N(C)C)cc32)CC1` [Thioproperazine dimesylate] is 0.243; for `CC(C)(C)C(=O)OCOC(=O)[C@@H]1N2C(=O)[C@@H](/N=C/N3CCCCCC3)[C@H]2SC1(C)C` [Pivmecillinam hydrochloride] it is 1.02; for `Cc1onc(-c2ccccc2)c1-c1ccc(S(N)(=O)=O)cc1` [Valdecoxib] it is 0.972.
In the case of `COc1c(O[C@@H]2O[C@H](CO)[C@@H](O)[C@H](O)[C@H]2O)cc2c(c1OC)-c1ccc(SC)c(=O)cc1[C@@H](NC(C)=O)CC2` [Thiocolchicoside], the ALDHbr was 0.96.
For `COc1ccccc1OCC(O)CO` (configuration not stated) [Guaifenesin], the ALDHbr was 0.948.
As to `Cc1cc(O)c(C(=O)N[C@@H](C(=O)N[C@@H]2C(=O)N3C(C(=O)O)=C(CSc4nnnn4C)CS[C@H]23)c2ccc(O)cc2)cn1` [Cefpiramide], the ALDHbr was found to be 0.977.
For the molecule `CC1(C)OC(=O)NC1=O` [Dimethadione], the ALDHbr was 0.786.
For the molecule `CCOC1O[C@H]([C@@H](COCc2ccccc2)OCc2ccccc2)[C@H](OCc2ccccc2)[C@H]1O` (some centres not stated) [Tribenoside], the ALDHbr stood at 0.727.
In the case of `CS(=O)(=O)c1ccc([C@@H](O)[C@@H](CO)NC(=O)C(Cl)Cl)cc1` [Thiamphenicol], the ALDHbr came out at 0.799.
The figure for `COc1cc(C(=O)NS(=O)(=O)c2ccccc2C)ccc1Cc1cn(C)c2ccc(NC(=O)OC3CCCC3)cc12` [Zafirlukast] is 0.933; for `C[C@H]1[C@H](NC(=O)/C(=N\OC(C)(C)C(=O)O)c2csc(N)n2)C(=O)N1S(=O)(=O)O` [Aztreonam] it is 1.05; for `COC(=O)C1=C(C)NC(C)=C(C(=O)OC)C1c1ccccc1[N+](=O)[O-]` [Nifedipine] it is 0.871.
The figure for `CC(=O)Nc1ccc(O)cc1` [Acetaminophen] is 0.916.
